This passage reports inhibition results from PubChem BioAssay AID485344 (National Center for Advancing Translational Sciences (NCATS), 2010).

Among all 340,000 compounds or so, about 6,900 (2%) were called active. No stated cut-off is given here; in the data, active means inhibition above about 30%; inactive means below that, where a call was filed. The list shows a part of the results, in another mix than the full data. Entries without a call were filed so in the source.

Sequence of UniProt P14416 (P14416 whole entry, looked up): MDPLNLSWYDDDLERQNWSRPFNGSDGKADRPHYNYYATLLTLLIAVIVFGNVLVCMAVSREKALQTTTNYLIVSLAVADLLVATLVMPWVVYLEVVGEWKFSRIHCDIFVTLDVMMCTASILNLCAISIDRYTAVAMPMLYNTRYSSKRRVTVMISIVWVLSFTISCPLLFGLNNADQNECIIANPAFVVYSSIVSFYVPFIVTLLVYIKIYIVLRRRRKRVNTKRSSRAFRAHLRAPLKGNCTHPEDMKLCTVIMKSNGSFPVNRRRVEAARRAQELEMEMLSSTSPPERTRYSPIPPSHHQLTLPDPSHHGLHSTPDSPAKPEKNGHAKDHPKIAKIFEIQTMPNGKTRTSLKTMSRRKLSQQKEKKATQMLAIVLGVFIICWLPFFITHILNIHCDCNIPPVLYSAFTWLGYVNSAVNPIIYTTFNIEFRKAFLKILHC

The assay deals with D(2) dopamine receptor (Homo sapiens) (UniProt P14416). The experiment in a line: HTS Assay for Allosteric Antagonists of the Human D2 Dopamine Receptor: Primary Screen for Antagonists. Further: 0% is about no effect. The following applies: HEK293 TREx D2 cells, calcium flux, dopamine EC80; at 10 µM; stronger effect = higher value. A digest of the protocol:
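Tetracycline-induced HEK293 TREx cells expressing D2 receptor forced-coupled to calcium signalling, loaded with no-wash calcium dye. Compounds added and calcium flux read 180 s, then dopamine added at EC80 and read a further 180 s.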
For the compound `COCCCNC(=O)c1ccc(CSc2nc3cccnc3n2Cc2ccc(OC)cc2)cc1`, the inhibition is 14.1%.

As to `CCOC(=O)c1ccccc1NC(=O)CSc1c(C)cnc2c1c(=O)n(C)c(=O)n2C`, the inhibition was -2.87%.

Take `COc1cc(OC)cc(C(=O)NC2CC(C)(C)NC(C)(C)C2)c1`: the inhibition is active: 82.5%.

Turning to `Cc1nc2c(c(C)c1CCC(=O)N1CCN(c3ccccc3)CC1)c(=O)n(C)c(=O)n2C`, the inhibition was -18.7%.

As for `COc1ccc(C2C=C(c3ccccc3)Nc3nc(NS(=O)(=O)c4ccccc4)nn32)cc1` (configuration not stated), the inhibition was found to be 16.1%.

In the case of `CCc1ccc(-n2c(=O)c3c4c(sc3n(Cc3ccccc3C#N)c2=O)CCCC4)cc1`, the inhibition was -16%.

Regarding `CCCn1c2ccccc2c2cnn(CC(=O)Nc3cc(C)c(Cl)cc3OC)c(=O)c21`, the inhibition was found to be 2.61%.

Turning to `CC1CCc2c(sc(NC(=O)Cc3ccccc3)c2C(=O)Nc2ccc(Cl)cc2)C1` (configuration not stated), the inhibition was -10.7%.

`COc1ccc(OC)c(NC(=O)CSc2nc(=O)n(CCN(C)C)c3c2CCC3)c1`: the inhibition was -2.09%.

On to `COc1cc(NC(=O)CC2C(=O)N(c3ccccc3)C(=O)N2Cc2ccc(F)cc2)cc(OC)c1` (configuration not stated), for which the inhibition is -17.8%.

Turning to `CCCOc1ccc(C2C(=O)N(C3CCCCCC3)CC(=O)N2Cc2ccccc2OC)cc1OC` (configuration not stated), the inhibition was found to be 5.03%.

In the case of `COc1ccc(CN(C)CC(O)COC(c2ccc(OC)cc2)c2ccc(OC)cc2)cc1` (configuration not stated), the inhibition is active: 39.3%.

Take `CSc1cccc(NC(=O)CN(c2cccc(C)c2)S(C)(=O)=O)c1`: the inhibition is active: 30.1%.

Consider `COc1ccc(CCC(=O)NCCc2csc(-c3ccc(F)cc3)n2)cc1`, for which the inhibition stood at 9.68%.

As for `CCCCNC(=O)c1nn(C)c2c1CSc1ccccc1-2`, the inhibition was -14%.

For `Cc1ccc(C(=O)c2cn(Cc3cccc(Cl)c3)c3nc(C)ccc3c2=O)cc1`, the inhibition was 7.59%.

For `Cc1cc2c(cc1S(=O)(=O)NCc1ccc(F)cc1)n(C)c(=O)c(=O)n2C`, the inhibition was determined as 2.45%.

In the case of `O=C(CSCc1ccc(F)cc1)N1CCN(c2ccccc2F)CC1`, the inhibition was -11.9%.

As for `COc1ccc(NC(=O)c2ccco2)cc1NC(=O)COc1ccc(C)c(C)c1`, the inhibition was -6.95%.

With `CCOc1ccccc1N1CCN(Cc2cccc(OC)c2O)CC1`, the inhibition was active: 67.7%.

For `CC(=O)Cn1c(CN2CCCC2)nc2ccccc2c1=O`, the inhibition is active: 35.3%.

With `O=C(NCCc1ccccc1)c1ccc2c(c1)N(Cc1ccc(Cl)cc1)C(=O)CS2`, the inhibition is -18.9%.

Take `COc1cccc(C(=O)NCC2OCCc3ccccc32)c1` (configuration not stated): the inhibition was found to be 18.1%.

For the compound `COc1cc(C)ccc1OCCSc1nc2ccc(NC(=O)c3ccco3)cc2s1`, the inhibition stood at 19.7%.

`COc1ccc(C2CC(=O)c3cc(-c4nc(-c5cccc([N+](=O)[O-])c5)cs4)c(=O)n(-c4ccccc4)c3C2)cc1` (configuration not stated): the inhibition was found to be 12.1%.

Regarding `Cc1cc(Br)ccc1NC(=O)CNC(=O)CNc1cccc([N+](=O)[O-])c1`, the inhibition is active: 30.5%.

On to `CCn1cc(C(=O)N(C)Cc2ccccc2)c(=O)c2cc(S(=O)(=O)N3CCc4ccccc4C3)ccc21`, for which the inhibition came out at 4.25%.

As for `CCN1c2ccccc2-c2nc(SCC(=O)Nc3cccc(C)c3C)ncc2S1(=O)=O`, the inhibition is 0.329%.

Consider `COc1ccc(CNC(=O)CCNS(=O)(=O)c2ccc3c(c2)oc(=O)n3C)cc1`, for which the inhibition is -16.9%.

As to `Cc1ccccc1C(=O)Nc1cc(C)c(O)c(-c2nc3ccccc3o2)c1`, the inhibition was -12.5%.

On to `O=C(COc1ccc(Cl)cc1Cl)NC(=O)N1CCCCC1`, for which the inhibition was active: 32.2%.

As for `Cc1cc2c(s1)Nc1ccccc1N=C2N1CCN(C)CC1`, the inhibition was active: 76.8%.

Turning to `CCCCCCn1nnc2sc(-c3ccccc3)cc2c1=O`, the inhibition was 3.68%.

On to `CC1CCN(CC2CCN(C(=O)NCc3ccccc3)CC2)CC1`, for which the inhibition worked out at 9.58%.

On to `CCOc1ccc(-c2nc(Cn3c(=O)cc(C)c4c(C)nn(-c5ccccc5)c43)c(C)o2)cc1`, for which the inhibition was found to be 19.7%.

For the compound `CCC1CN(C(=O)Nc2ccccc2F)c2cc(C)ccc2O1` (configuration not stated), the inhibition worked out at 1.24%.

As to `Cc1csc2nc(COC(=O)c3ccccc3NC(=O)c3cccc(Br)c3)cc(=O)n12`, the inhibition was 4.08%.

For the compound `O=C(NCCc1ccc(Cl)cc1)c1c2c(nc3ccccc13)C(=O)N(C1CCCCC1)C2`, the inhibition came to 11.1%.

In the case of `O=S(=O)(c1ccc(Br)s1)N1CCN(c2cccc(C(F)(F)F)c2)CC1`, the inhibition is -3.18%.

For the compound `COCCn1c(SCC(=O)Nc2cc(Cl)ccc2OC)nc2c([nH]c3ccccc32)c1=O`, the inhibition is 14.1%.

In the case of `Cc1noc(-c2ccc(-c3noc(-c4ccc(F)cc4)n3)cc2)n1`, the inhibition amounted to 17.8%.

Take `O=C(CCCn1c2ccccc2c(=O)c2ccccc21)Nc1cccc(Cl)c1`: the inhibition is 1.32%.

With `COc1cccc(CNC(=O)c2cc3c(-c4ccccc4F)nn(C)c3s2)c1`, the inhibition turned out to be 5.57%.

Turning to `CCOC(=O)c1cccc(NC(=O)CCSCCc2ccccn2)c1`, the inhibition worked out at 16.1%.

For `COc1cc(C2Nc3ccccc3-c3cc(C)nn32)ccc1O` (configuration not stated), the inhibition is 4.93%.

For the compound `Cc1ccc(NC(=O)Cn2nc(-c3ccccc3)nc(Cc3ccc(Cl)cc3)c2=O)cc1`, the inhibition is -22.7%.

As to `COc1cc(OC)cc(-c2cc3nc(C)c(CCC(=O)NCCc4cccc(C)c4)c(C)n3n2)c1`, the inhibition is 15.8%.

Take `COc1cc(NC(=O)Cn2nc(C(F)(F)F)c3c2CCC3)cc(OC)c1OC`: the inhibition amounted to 4.98%.

Regarding `O=C(CCn1c(=O)c2ccccc2n(CC(=O)Nc2cccc(F)c2)c1=O)NCCc1ccccc1`, the inhibition came out at 12.2%.

As to `COc1ccc(OC)c(CNC(=O)c2ccc(N3Cc4ccccc4Oc4ncccc43)s2)c1`, the inhibition is -4%.

`CC1CCCN(CCCNC(=O)c2cc(Sc3ccc(F)cc3)nc3ccccc23)C1` (configuration not stated): the inhibition is -6.23%.

On to `Cc1cccc(Cn2cc(S(=O)(=O)c3cccc(Cl)c3)c(=O)c3cc(F)c(N4CCOCC4)cc32)c1`, for which the inhibition is 14.3%.

For the compound `CCOC(=O)c1c(C)[nH]c(C)c1S(=O)(=O)N(C)CC(=O)Nc1ccc(OC)cc1`, the inhibition was -4.03%.

As for `COc1ccc(CC(=O)Nc2c(C(=O)N3CCN(c4ccccc4)CC3)oc3ccccc23)cc1OC`, the inhibition was -0.459%.

In the case of `Cn1c(=O)c2nc(SCC(=O)Nc3ccc(OC(F)(F)F)cc3)n(C)c2n(C)c1=O`, the inhibition was 18.1%.

For the compound `CCN(CC)c1ncnc2c1cnn2-c1cc(Cl)ccc1C`, the inhibition stood at 4.41%.

Turning to `COc1ccc(-c2nc(CNC(=O)NC3CCCCC3)c(C)o2)cc1`, the inhibition turned out to be 17.6%.

Regarding `COc1cc(C(CC(=O)Nc2ccc(C)c(F)c2)N2Cc3ccccc3C2=O)cc(OC)c1OC` (configuration not stated), the inhibition stood at 17.9%.

Consider `CCOc1ccccc1NC(=O)C1CCN(S(=O)(=O)c2c(C)noc2/C=C/c2ccco2)CC1`, for which the inhibition is -17.5%.

For `O=C1OCC2=C1C(c1cccc(Cl)c1)CC(=O)N2c1ccc(C(F)(F)F)cc1` (configuration not stated), the inhibition was -6.8%.

On to `O=C(Nc1ccc(F)cc1F)C1CCN(c2ncccn2)CC1`, for which the inhibition turned out to be 8.08%.

On to `O=S(=O)(c1ccc(C2CCCCC2)cc1)N1CCN(c2ccc(Cl)c(Cl)c2)CC1`, for which the inhibition was 5.78%.

By inhibition is commonly meant the change of the read-out against control, counted positive when it falls.
